# Assay results from PubChem BioAssay AID485344 (National Center for Advancing Translational Sciences (NCATS), 2010).
# Several values for one entry are separate records, joined by “and”; a condition that tells them apart may be missing. Equal values may be shown once. Among all 340,000 compounds or so, about 6,900 (2%) were called active. Cut-off read from the data, not from the text of the source: active = inhibition above about 30%; inactive = below that, where a call was filed. The list shows a part of the results, in another mix than the full data. Where no call is shown, the source filed none.
# Molecular target: D(2) dopamine receptor (Homo sapiens) (UniProt P14416)
# Sequence of UniProt P14416 (P14416 whole entry, looked up): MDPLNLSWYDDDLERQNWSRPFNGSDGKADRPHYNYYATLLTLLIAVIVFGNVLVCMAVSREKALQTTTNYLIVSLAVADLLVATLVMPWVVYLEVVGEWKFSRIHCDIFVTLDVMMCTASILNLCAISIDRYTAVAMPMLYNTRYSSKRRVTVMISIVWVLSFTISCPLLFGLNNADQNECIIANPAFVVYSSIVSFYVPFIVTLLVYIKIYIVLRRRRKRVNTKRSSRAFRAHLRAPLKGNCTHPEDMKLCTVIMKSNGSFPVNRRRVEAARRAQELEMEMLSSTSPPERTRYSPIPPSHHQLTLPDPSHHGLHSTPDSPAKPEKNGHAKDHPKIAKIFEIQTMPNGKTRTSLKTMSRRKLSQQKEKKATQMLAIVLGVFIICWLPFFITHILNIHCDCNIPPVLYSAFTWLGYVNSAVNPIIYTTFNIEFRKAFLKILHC
# Assay: HTS Assay for Allosteric Antagonists of the Human D2 Dopamine Receptor: Primary Screen for Antagonists; note: 0% is about no effect
# Details: HEK293 TREx D2 cells, calcium flux, dopamine EC80; at 10 µM; stronger effect = higher value
# How it was run: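 Tetracycline-induced HEK293 T-REx cells expressing D2 force-coupled to calcium signalling were dye-loaded, exposed to compound for 180 s, then challenged with an EC80 of dopamine; calcium flux was followed kinetically for a further 180 s.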
row,Compound,inhibition
1,Cc1ccc(-c2nc3sc(CCNS(=O)(=O)c4cc(F)ccc4F)c(C)n3n2)cc1,5.53%
2,CCn1cnc2sc(C(=O)N(Cc3ccc(N(C)C)cc3)Cc3ccco3)c(C)c2c1=O,active: 31.6%
3,CC(=O)N(Cc1cccnc1)c1nc2c(F)cc(F)cc2s1,-17.2%
4,COc1ccc(OC)c(NC(=O)Cn2cnc3ccc(S(=O)(=O)N4CCC(C)CC4)cc3c2=O)c1,-7.06%
5,O=C(Nc1cc(-c2nc3ccccc3s2)ccc1Cl)c1cc2ccccc2o1,-5.93%
6,COc1ccc(CN2CC(C(=O)NCCN3CCN(c4ccccc4F)CC3)CC2=O)cc1 (stereo unspecified),active: 78.4%
7,CCCOc1cccc(NC(=O)c2c(-c3ccccc3Cl)noc2C)c1,10.4%
8,CN(C(=O)CSc1nc2ccc(NC(=O)COc3ccc(Cl)cc3)cc2s1)c1ccccc1,4.72%
9,O=S(=O)(Nc1ccccc1C(F)(F)F)c1ccc(N2CCCCS2(=O)=O)cc1,-18.8%
10,COc1cc(/C=C/c2nc(C#N)c(N3CCCCCC3)o2)cc(OC)c1OC,-12.7%
11,CCOc1ccccc1NC(=O)CSc1nc(=O)[nH]c2c1CCCC2,-17.1%
12,O=C(CS(=O)(=O)c1cccc2nsnc12)Nc1ccccc1,20.9%
13,COc1ccccc1CNC(=O)CN1C(=O)COc2ccc(S(=O)(=O)Nc3ccccc3)cc21,9.33%
14,CC(C)(C)c1ccc(C(=O)NCCc2csc3nc(-c4ccccc4F)nn23)cc1,-15%
15,COc1ccc(C2CC(=O)NC(NC(=O)c3ccc(Br)cc3)=N2)c(OC)c1OC (stereo unspecified),6.31%
16,CSCCC(NS(=O)(=O)c1ccc2c(c1)oc(=O)n2C)C(=O)N1CCN(c2cc(C)ccc2C)CC1 (stereo unspecified),10.4%
17,CCN(CC)S(=O)(=O)c1cccc(C(=O)NCC2(N3CCOCC3)CCCCC2)c1,active: 39.1%
18,Cn1c(=O)n(C)c2cc(NS(=O)(=O)c3ccc(F)cc3)ccc21,-19%
19,COc1cccc(C(=O)Nc2ccc3nc(SCC(=O)N4CCOCC4)sc3c2)c1,10.9%
20,CCCCS(=O)(=O)c1oc(-c2cccs2)nc1S(=O)(=O)c1ccccc1,12.9%
21,Cc1cc(C)n2c(Nc3ccc(Cl)cc3)c(-c3ccsc3)nc2n1,-23.9%
22,Cc1ccc2c(CN3CCN(C(=O)c4ccc(F)cc4)CC3)cc(=O)oc2c1,14.6%
23,Cc1ccc(OCC(=O)N(c2ccc(C)cc2)S(=O)(=O)c2ccc(Cl)cc2)cc1,1.92%
24,COc1ccc(NC(=O)CSc2oc(-c3cccs3)nc2S(=O)(=O)c2ccc(C)cc2)c(OC)c1,5.69%

row,Compound,inhibition
1,CCOc1ccccc1NC(=O)c1cc(=O)c2ccc(C)cc2o1,-1.72%
2,CCSc1nc(-c2ccccc2OC)nc2c1Cc1c(CO)cnc(C)c1O2,21.1%
3,CCOC(=O)c1c(C)oc2ncnc(N3CCN(c4ccccc4F)CC3)c12,-16.2%
4,O=C(Cc1cccs1)NC1CC(=O)N(c2cccc(F)c2)C1 (stereo unspecified),-2.98%
5,O=C(/C=C\c1ccc2c(c1)OCO2)NC1CC(=O)N(c2ccc(Cl)cc2)C1 (stereo unspecified),4.29%
6,COc1ccc(C2(Nc3cccc(C(=O)O)c3C)C(=O)c3ccccc3C2=O)cc1,5.98%
7,COc1ccc(-c2csc3nc(-c4ccccc4C)oc(=O)c23)cc1OC,1.69%
8,Cc1ccc(NC(=O)C2CCN(S(=O)(=O)c3c(C)noc3C)CC2)c(C)c1,-8.19%
9,CC(=O)N1CCOc2cc(S(=O)(=O)NCc3ccc(C)cc3)c(Cl)cc21,-10.7%
10,COc1cccc(-n2cc(C(=O)NCCc3ccc(C)cc3)c3ccccc3c2=O)c1,3.77%
11,COc1ccc2oc(=O)c(-c3csc(-c4ccc(Br)cc4)n3)cc2c1,-19.4%
12,Cc1c(C)c2c(cc(C)c3c(-c4ccccc4)coc32)oc1=O,-23%
13,O=C(NC1CC(=O)N(c2cccc(F)c2)C1)C1CCCC1 (stereo unspecified),-26.7%
14,Cc1ccc(CNC(=O)c2cccn2-c2nnc(N3CCCCC3)s2)cc1,3.99%
15,COc1ccccc1-n1ncc2c(=O)[nH]c(SCC(=O)Nc3ccc(Cl)cc3)nc21,-1.12%
16,O=C(Nc1cc2c(cc1C(=O)c1ccccc1)OCCO2)c1ccc(Br)cc1,23.3%
17,CN(C)CCN(Cc1ccccc1)S(=O)(=O)c1ccc2[nH]c(=O)ccc2c1,8.37%
18,O=C(Nc1cccc(S(=O)(=O)C(F)F)c1)c1ccc(S(=O)(=O)N2CCCC2)cc1,active: 58.5%
19,O=C(c1cccn1-c1nnc(N2CCCC2)s1)N1CCN(c2ccccc2)CC1,2.56%
20,O=S(=O)(NCc1ccc(F)cc1)c1ccc(-c2cnc(C3CC3)o2)cc1,7.26%
21,Cc1ccc(C(=O)c2cn(CC(=O)NC3CCCCC3)c3nc(C)ccc3c2=O)cc1,-5.55%
22,Cc1c(C(=O)N2CCCC2)oc2c1-c1nn(CC(=O)NCCCOC(C)C)cc1CC2,-9.86% and active: 34.6%
23,COc1cccc(C(=O)Nc2ccccc2C(=O)OCc2cc(=O)n3nc(C4CC4)sc3n2)c1,-16%
24,COc1cc(OC)c2ccc(=O)oc2c1C(CCN1CCN(c2ccccc2)CC1)c1ccc(N(C)C)cc1 (stereo unspecified),active: 61.6%

row,Compound,inhibition
1,CCN(CC)CCCNC(=O)CN1C(=O)CCn2nc(-c3cn(C)c4ccccc34)cc21,-4.57%
2,COc1ccc(-c2nc3c4ccccc4n(CC(=O)N4CCN(c5ccccc5OC)CC4)c(=O)n3n2)cc1,-15.8%
3,COc1ccc(CCNC(=O)c2ccc3c(c2)c(C)c(C)n3Cc2ccc(F)cc2)c(OC)c1OC,8.78%
4,Cc1ccc2nc(-c3ccccc3F)c(Nc3ccc(Cl)cc3)n2c1,19.5%
5,COc1cccc(-n2c(=O)c3c4c(sc3n(Cc3ccc(C)cc3)c2=O)CCCC4)c1,-20.9%
6,COc1ccc(-c2nc(CSCC(=O)N3CCN(c4cccc(C)c4C)CC3)c(C)o2)cc1OC,9.06%
7,CC1CCC(NC(=O)c2ccc3c(c2)N(Cc2cccc(Cl)c2)C(=O)c2ccccc2S3(=O)=O)CC1 (stereo unspecified),-6.61%
8,CCCn1c(=O)sc2cc(NC(=O)COc3ccc(Cl)cc3)ccc21,15.8%
9,CCc1ccccc1NC(=O)Cn1nnc(C(=O)NCc2ccccc2Cl)c1N,-5.56%
10,COc1cccc(CN(C(=O)c2oc3cc(C)ccc3c2C)C2CCS(=O)(=O)C2)c1 (stereo unspecified),-6.35%
11,CCN(CC)CC(C)CNC(=O)c1cc(-c2ccc(Br)s2)nc2ccccc12 (stereo unspecified),-9.23%
12,CCOC(=O)c1ccc(NS(=O)(=O)c2ccc3c(c2)n(C)c(=O)n3C)cc1,5.64%
13,CCCCNC(=O)c1nn(-c2ccc(CC)cc2)nc1CO,-12.2%
14,Cc1cccc(NC(=O)C2CCN(S(=O)(=O)c3ccc(F)cc3)CC2)c1C,-3.32%
15,CNCCC=C1c2ccccc2CCc2ccccc21,active: 42.3%
16,COc1cc(CN(C(=O)COc2ccc(C)cc2)c2ccccn2)cc(OC)c1OC,12.7%
17,COc1ccc(C(=O)N2CCN(Cc3cc(=O)n4nc(-c5ccccc5C)sc4n3)CC2)cc1OC,-1.5%
18,CCOc1ccc(NC(=O)C2CC(=O)N(c3ccc(C(C)C)cc3)C2)cc1 (stereo unspecified),-4.31%
19,COc1ccc(C)cc1NC(=O)c1ccc2c(SCC(=O)O)c3c(nc2c1)CCCC3,-10.1%
20,Cn1c(=O)n(-c2ccc3c(c2)OCO3)c2nc(-c3ccccc3)nc(C(N)=O)c21,2.98%
21,COc1ccc(NC(=O)c2sc3nc[nH]c(=O)c3c2C)cc1Cl,-26%
22,CCCC1=Nc2cc(C(=O)NC3CCCC3)ccc2Sc2ccc(C)cc21,12.2%
23,Cc1cc(C)cc(NC(=O)CSc2cc(C)[nH]c(=O)n2)c1,-5.44%
24,CCOC(=O)CC(NC(=O)Cn1nnc(-c2ccc(C(F)(F)F)cc2)n1)c1ccc(OC)cc1 (stereo unspecified),-15.5%

row,Compound,inhibition
1,O=C(NCc1ccc(F)cc1)c1ccc(Nc2nc3ccccc3n3nnnc23)cc1,18.7%
2,COc1ccccc1N1CCN(c2cc(C)nc3nc(-c4ccc(C)cc4)nn23)CC1,-11.6%
3,Cc1c(C(=O)Nc2ccccc2F)sc2ncnc(N(C)C3CCCCC3)c12,5.77%
4,Cc1cccc(CCNC(=O)CCc2c(C)nc3c4c(C)cc(C)nc4nn3c2C)c1,12.7%
5,COc1ccc(CNC(=O)Cn2ncc3c([nH]c4ccccc43)c2=O)cc1,-7.66%
6,CCc1cccc(C)c1NC(=O)Cn1c(=O)cc(C)c2c(C)nn(-c3cccc(F)c3)c21,2.54%
7,Cc1nn(-c2ccc(N3CCCC3)nn2)c(C)c1CCC(=O)Nc1ccc(F)cc1F,8.84%
8,N=c1c(C(=O)NCC2CCCO2)cc2c(=O)n3ccccc3nc2n1Cc1ccc(Cl)cc1 (stereo unspecified),active: 55.3%
9,Cc1cc2oc3c(c(=O)c2cc1C)C1(C(=O)N(C)c2ccccc21)N(CCO)C3=O (stereo unspecified),9.38%
10,CCn1c(CNC(=O)c2ccc(OC)cc2)nnc1SCC(=O)Nc1ccc(C)cc1,13.4%
11,Nc1cc(=O)nc(SCC(=O)Nc2ccc(F)cc2)n1CCc1ccccc1,-14%
12,CCCn1cnc2c(=O)oc3ccccc3c21,active: 38.9%
13,O=C(Nc1ccccc1Br)C(Cc1ccccc1)NS(=O)(=O)c1cccc2nsnc12 (stereo unspecified),-6.13%
14,COc1ccccc1NC(=O)C1CCN(C(=O)c2sc3nc[nH]c(=O)c3c2C)CC1,1.84%
15,CC(=O)c1ccc(NC(=O)c2ccc(-c3ccc(Cl)cc3)o2)cc1,-0.2%
16,CC1(C)CC(O)(CNCc2ccc3c(c2)OCO3)CCO1 (stereo unspecified),active: 87.8%
17,CCN(CC)CCNC(=O)c1ccc2nc(CCc3ccccc3)oc2c1,17%
18,CCOC(=O)c1cc(S(=O)(=O)N2CCN(c3ccc(C(C)=O)cc3)CC2)[nH]n1,2.33%
19,CCCC12CN3CC(CCC)(CN(C1)C3c1ccccc1)C2=O (stereo unspecified),0.695%
20,CCOC(=O)c1ccc(NC(=O)NCCOCCn2c(=O)oc3ccccc32)cc1,-4.35%
21,CCS(=O)(=O)c1nc(S(=O)(=O)c2ccc(C)cc2)c(NCCCOC)s1,0.727%
22,COc1ccc(CNC(=O)CSc2nc(-c3ccc(OC)c(OC)c3)cc(C(F)(F)F)n2)cc1,2.2%
23,COc1cc(Cl)c(NS(=O)(=O)c2ccc(-c3cnc(C4CC4)o3)cc2)c(OC)c1,-17.3%
24,O=C(NCCN1CCN(c2ccccc2)CC1)Nc1ccccc1Cl,active: 34.6%
